Test results from the supplement of paper PMC4466236.
Whole data set: some 33,000 sequences, median “E-score (dimensionless, -0.5 to 0.5)” near -0.058, cut for the highest 2% near 0.35. The list shows a part of the results.

These sequences were tested on MvaT (assay: PBM 8-mer E-score (mean of HK and ME arrays) (E-score (dimensionless, -0.5 to 0.5)); higher = stronger relative binding preference; most listed sequences are background and not binding sites).
In short: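 Full-length P. aeruginosa MvaT carrying an N-terminal glutathione S-transferase tag was tested by protein binding microarray following a previously described protocol. Two universal double-stranded 60-mer arrays, ME and HK, were used, each with a constant 25-mer primer region and a variable 35-mer region covering all 8-mers. The rank-based E-score is the mean of the two arrays, parsed with a custom script. Its range runs from -0.5 to 0.5 for each 8-mer.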

Sequence | PBM 8-mer E-score
AACGGTCC | -0.227
AAACAAGC | 0.0442
ACCTGCCC | -0.278
AATGCCAA | -0.0795
CGCTCACC | -0.263
GCTATACC | -0.136
AGCACCTG | -0.224
AGCTTACC | -0.0727
CCATCATA | 0.133
GAGGTGAC | -0.237
CGGAATGC | -0.157
ACGTCACG | -0.125
AATGGCCC | -0.0995
GAGTGTCC | -0.191
AATAACCT | 0.228
AGGCATAC | 0.0369
ACATTCAA | 0.146
ACTCAGAA | 0.00761
AGGTTAAT | 0.164
AACGAGGG | -0.321
CTTATCTC | 0.00961
CAGACCTG | -0.192
GAGACAAC | -0.128
AAAGCAGT | 0.00971
AGGATTAG | -0.157

Sequence | PBM 8-mer E-score
AAGGTGCG | -0.187
CCGGGACA | -0.176
GCTGTACC | -0.139
GGTCGTAA | -0.0429
ACTCTCTG | -0.0379
ATTTGTTC | 0.206
CGCACGCC | -0.277
ATCCGATA | 0.0518
GGGTATCA | -0.0926
CACGACAA | -0.107
CTCCCCTC | -0.281
AAGTACAA | 0.278
AGAGGACT | -0.116
AGGTTTAC | 0.0368
GACGTGTA | 0.037
AACACGAA | 0.0234
CTCCCGGA | -0.00501
AAGATGCG | -0.0218
CTCTTTTC | 0.0776
CTGAGAAA | 0.0752
CTATGAAC | -0.0591
GAAGGCTA | -0.222
AGTAGTCA | 0.0445
CGGATCCA | -0.213
GCTGAAAA | 0.118

Sequence | PBM 8-mer E-score
AACACCAC | -0.0122
AAAGACCC | -0.224
ATCAGCAA | -0.103
ATGCTTGA | 0.0424
ACTGGAGA | -0.108
ATCACAAG | -0.0473
TCGATCCA | -0.213
ATGCGCGA | -0.0161
TATAACCA | 0.318
CTAAAGTC | 0.0796
CCTGGAGC | -0.0686
ACTATTAC | 0.32
CATAGGCC | -0.229
CTACATAA | 0.123
GTTGCAAC | 0.157
ACGGCCGG | -0.0486
TAAGCGAA | 0.0597
AATCTTGC | -0.098
ACATTTGA | 0.0624
AAGAAACC | 0.0106
ACACGTTC | -0.178
TGACATCA | -0.211
ACCATCGA | -0.169
GTCAGCAA | -0.0186
AGCCATTA | 0.0493

Sequence | PBM 8-mer E-score
AATGCCGG | -0.0327
TAATTAGA | 0.353
GCGATCAC | -0.161
AAAAATAT | 0.377
ACTCGCCC | -0.141
GGCTCAAA | -0.00695
CCAACCTC | -0.181
AGACCAAC | -0.0497
CAAGGATG | -0.0011
AAGAGCTA | 0.102
CTTGGCGA | -0.121
GACTTTGC | 0.127
GACGGATC | -0.215
AATACGTG | 0.22
AGTATCTC | 0.0463
AAAACATA | 0.354
GCTTTAAC | -0.0229
ATAAATTG | 0.369
ATTGATTG | 0.116
AAAACGTA | 0.142
CGTTCACC | -0.181
CCATTCCC | -0.0958
CGTGAACG | -0.218
CTAGGATA | 0.0479
ACGCTATG | -0.101

Sequence | PBM 8-mer E-score
GGACCCAA | -0.123
GCTATTCA | 0.062
TAACCGTA | 0.137
AGTCCGGG | -0.222
CGTCGCCA | -0.175
CTGCCTAC | -0.187
ATCCAGGG | -0.18
CGGGTGAA | -0.0314
GGCCGGAC | -0.215
GCCAGCTA | -0.199
GAGAGAAA | -0.00143
CCCGCGCG | -0.255
GCGGGGTA | -0.189
AATCGCCC | -0.185
AGGATCAT | -0.000626
AGCCCGGG | -0.207
AACTCGTG | 0.0448
AAACTGTT | 0.222
AACATTCT | 0.137
CTGGACAC | -0.122
CAGAAGAA | -0.0363
AATCCAGA | 0.102
ATGCGGCG | -0.147
GTCCTGAA | 0.0353
CTATTCCA | 0.112

Sequence | PBM 8-mer E-score
TCGGACGA | -0.174
ACTAAAAT | 0.39
AGCAACTG | -0.123
CGGTCATA | -0.0151
AAGCACGT | 0.0308
TAGCAAGA | -0.104
ATTTGGAC | 0.0323
GCTACTAC | -0.113
CCGCGACA | -0.0527
ATTACCCC | 0.0674
GCAATCAA | 0.196
TACAATGA | 0.137
GGTGAGGA | -0.155
CTAAATAA | 0.365
CCAGATGG | -0.281
CCATCTAC | -0.0528
CTCGACGC | -0.138
TAAGATTA | 0.211
CTGTACAC | 0.000633
ACGTTCAC | -0.151
ACTATAGC | 0.085
CGGAAATC | 0.0137
AATGGCAA | 0.0523
AGACGCTA | -0.147
CCCGCCTC | -0.176

Sequence | PBM 8-mer E-score
CCCGGAAG | -0.224
CATAGAGA | 0.0529
CCGGACAG | -0.102
ACCACCGC | -0.0733
CAATTACA | 0.288
CCTAGCAC | -0.283
AATGACAC | -0.0902
GGTAGGAC | -0.0621
AGGTCACG | -0.245
ATATTAGC | 0.352
ATAGCGGC | -0.00235
GGCACTCA | -0.06
ATAGGGAA | 0.064
CGACAAGA | -0.106
CTCACTCA | -0.0753
TGCGCGCA | -0.105
ATCCTTCC | -0.122
ATGGCTCG | -0.0679
CAGCATGC | -0.307
GAAGCCAA | -0.0473
AGAACTAC | 0.129
CACCGCTG | -0.148
GAATGCAC | -0.254
ACCCGCTC | -0.211
ATGGATCG | -0.146

Sequence | PBM 8-mer E-score
GCTGCTCA | -0.235
CACAAGAG | -0.0406
CGCAAAGA | -0.0963
ATTAATGC | 0.341
AGTTTCAG | 0.0952
ACCGGTCT | -0.0498
AAGGACGC | -0.207
ATGAAAAA | -0.00382
CCGGACCC | -0.195
CAGTTAAG | 0.0695
ACGGCTAC | -0.249
ACCAACGT | -0.193
CGTGAAGC | -0.218
TGAGGAAA | 0.0797
AAGCGCGT | 0.0364
AAGAGTAG | 0.0495
ACATTCGC | 0.0882
AAGTGGGT | 0.0357
ACTCACTA | 0.164
ATCGGCAG | -0.226
GTAGGCTA | -0.214
ATACAACA | 0.331
ACAAACGG | 0.1
AGAGCTCC | -0.307
CATCGTGA | -0.157

Sequence | PBM 8-mer E-score
ATAGTGGA | 0.176
CGTTCGTC | -0.101
CTGTGAAC | -0.0385
CTTTAGCC | -0.049
GGCCCCTA | -0.222
CCCTTATC | 0.0147
TAGGTCGA | -0.061
GACAACGA | -0.00433
ATCAATAC | 0.165
GAGATGCC | -0.168
ACTTAACC | 0.119
GAGCTCCC | -0.337
ATCAGGAG | -0.0972
AGCGCCAC | -0.262
AAAAGATC | 0.00329
TGAAGTAA | 0.222
TACCTGGA | -0.0284
AGCTTCAC | -0.188
CTTATTCC | 0.221
CGGCGACC | -0.285
ATAGAGAC | 0.0828
ATACAGAC | 0.0447
GTAAGTAA | 0.207
CGAGTAGC | -0.253
GTAGATCA | -0.0662

Sequence | PBM 8-mer E-score
GAGATAAC | 0.0136
CCCTGTCG | -0.141
AGCCTAAA | -0.112
ATCAGGTA | -0.166
CACATGCA | -0.0297
AAGTGGAC | -0.113
ATAGTGAG | 0.136
TGCTATAA | 0.285
AATAAATT | 0.436
ACATGCGC | -0.144
AAGGGGAC | -0.238
ATCTACAA | 0.125
GTAATCTA | 0.151
CACCATGG | -0.25
ACGCGCTC | -0.254
GGCTTTCA | -0.087
GTTTCACA | -0.00657
CGTTGGAG | -0.203
CCTAGAGC | -0.177
CACGCCTA | -0.207
CGGATTAC | 0.0302
AGTCAAAG | 0.00141
ACGCACAA | 0.0568
AATGAAGG | 0.0758
ACGTGCCC | -0.0699

Sequence | PBM 8-mer E-score
GCCGCCCA | -0.166
GACTGCCA | -0.167
AGTCTGGA | -0.0331
AACAAACG | 0.15
GCTTCCTA | -0.229
CCTCGATA | -0.179
CAGAGAAC | -0.0742
TTAGGGAA | 0.0483
AGGCACGA | -0.222
ATGAAAGC | 0.111
TCTCTACA | 0.00127
GCGGTCCC | -0.33
GCGCACAC | -0.217
CGCAACGC | -0.12
CAAGTCAC | -0.00509
GAGCACCC | -0.0692
GGGGATAC | -0.152
ACAGTTTA | 0.205
CAGATTTC | 0.00487
ACTTTATA | 0.39
ACATGTGA | 0.139
CAGGGTGG | -0.217
CTGTTGAC | -0.17
ATACAAGC | 0.109
CGACTGGC | -0.15

Sequence | PBM 8-mer E-score
CACATATC | 0.178
ATCTGAGA | -0.0981
ATTCTACC | 0.0658
GATGACCA | -0.0801
CAAAATAA | 0.343
ACGTCCTC | -0.333
AGATACGC | -0.0797
ATGTTCGA | 0.0937
ATTGACTC | 0.0485
GCTCGGTA | -0.00285
AGCATAAC | 0.13
TACGGATA | -0.079
GTCAGGGA | -0.136
GGCAGACA | 0.0225
GCCCCAAA | -0.0927
TCGCTTCA | -0.0426
GCTTGAAA | -0.0119
GCGCTTCC | -0.242
ATAACGTC | 0.125
ACCGCAAG | -0.176
CTTTGTCA | -0.0285
AGACTTCC | -0.21
GATCATAC | 0.0972
AGGAATGG | -0.0828
AATACACC | 0.181

Sequence | PBM 8-mer E-score
CGACCTAG | -0.0474
CGCGTGTA | -0.0576
CGATTTTC | 0.0289
ACGCGTCG | -0.0515
AGATCTGA | -0.0177
CCTAGTCC | -0.209
TCTGTACA | -0.034
GTCGCTCA | -0.19
AAGGCGGG | -0.245
CTCAGCCC | -0.175
AGCTACGA | -0.0769
CATTCTCC | -0.185
TCCTTCAA | -0.14
ACGATGTG | -0.0662
TCCATCCA | -0.156
CTCCACCC | -0.26
TGTGAAAA | 0.124
ACATATAG | 0.264
AAGGAACT | 0.0181
CGAATTGA | -0.0176
GATTGCAC | 0.0202
AAGATGGT | 0.0543
ACAGGACT | -0.164
GATCAGGA | -0.0389
GATAGATA | 0.0346

Sequence | PBM 8-mer E-score
ACGTAAAG | -0.0111
AAACGACA | 0.118
AGTATTGA | 0.227
CCTCTGCG | -0.297
TACGATGA | 0.0706
ACCCTACC | -0.0835
CTTGTGCA | -0.0227
AGAGCGTA | -0.0436
CCTGTAGC | -0.247
CTCTGGGC | -0.139
GCCTTAAC | 0.0617
AACACCGG | 0.104
CGAGGCGC | -0.253
AACCGGGG | -0.213
AGGGGTAA | -0.0363
ATCGAGAG | -0.00233
AGTGAGCA | -0.0559
CGACGCGC | -0.182
CGAACCGC | -0.161
